Measured values: PubChem BioAssay (NCI)
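Test compounds were applied to cells in 96-well plates for 48 hours at 5 doses. TGI is the concentration that stops growth completely.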 A number of entries come with more than one value. Only these are listed. There may be further records. The tests behind the records often covered other concentration ranges, which the source does not state; a value can be the end of its range.

System: MDA-MB-468 breast
Assay: inhibition of tumour cell growth, NCI panel, 48 h

For CC(=O)c1cc(C(=O)c2ccc3c(c2)Sc2ccccc2N3)n2ccccc12, the TGI was 19.1 nM and 4.5 µM.
